Laboratory results taken from the supplement of paper PMC8728848.
The list shows a part of the results.

Tests used:
Experiment in all cases: glycan array binding signal (z-score within array); higher = stronger binding
Conditions in all cases: glycan notation: IUPAC condensed, linker removed
[1] = molecular target: Gal(b1-4)GlcNAc(b1-3)Gal(b1-4)GlcNAc(b1-2)[Gal(b1-4)GlcNAc(b1-3)Gal(b1-4)GlcNAc(b1-6)]Man(a1-6)[Gal(b1-4)GlcNAc(b1-3)Gal(b1-4)GlcNAc(b1-2)Man(a1-3)]Man(b1-4)GlcNAc(b1-4)GlcNAc
Outline: (§1)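 The Consortium for Functional Glycomics database supplied 3228 glycan arrays, of which those lacking an available protein sequence were dropped. The binding signal, a within-array Z-score, was averaged across arrays of the same protein sequence and across linkers. Negative scores can be read as non-binding.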

[2] = molecular target: Gal(b1-4)GlcNAc(b1-3)Gal(b1-4)GlcNAc(b1-2)[Gal(b1-4)GlcNAc(b1-3)Gal(b1-4)GlcNAc(b1-6)]Man(a1-6)[Gal(b1-4)GlcNAc(b1-3)Gal(b1-4)GlcNAc(b1-2)Man(a1-3)]Man(b1-4)GlcNAc(b1-4)[Fuc(a1-6)]GlcNAc
Outline: as §1

[3] = molecular target: Gal(b1-4)GlcNAc(b1-3)Gal(b1-4)GlcNAc(b1-3)Gal(b1-4)GlcNAc
Outline: as §1

[4] = molecular target: Gal(b1-4)GlcNAc(b1-3)Gal(b1-4)GlcNAc(b1-3)Gal(b1-4)GlcNAc(b1-2)Man(a1-3)[Gal(b1-4)GlcNAc(b1-3)Gal(b1-4)GlcNAc(b1-3)Gal(b1-4)GlcNAc(b1-2)Man(a1-6)]Man(b1-4)GlcNAc(b1-4)GlcNAc
Outline: as §1

[5] = molecular target: Gal(b1-4)GlcNAc(b1-3)Gal(b1-4)GlcNAc(b1-3)Gal(b1-4)GlcNAc(b1-2)Man(a1-3)[Gal(b1-4)GlcNAc(b1-3)Gal(b1-4)GlcNAc(b1-3)Gal(b1-4)GlcNAc(b1-2)Man(a1-6)]Man(b1-4)GlcNAc(b1-4)[Fuc(a1-6)]GlcNAc
Outline: as §1

[6] = molecular target: Gal(b1-4)GlcNAc(b1-3)Gal(b1-4)GlcNAc(b1-3)Gal(b1-4)GlcNAc(b1-2)[Gal(b1-4)GlcNAc(b1-3)Gal(b1-4)GlcNAc(b1-3)Gal(b1-4)GlcNAc(b1-6)]Man(a1-6)[Gal(b1-4)GlcNAc(b1-3)Gal(b1-4)GlcNAc(b1-3)Gal(b1-4)GlcNAc(b1-2)Man(a1-3)]Man(b1-4)GlcNAc(b1-4)[Fuc(a1-6)]GlcNAc
Outline: as §1

[7] = molecular target: Gal(b1-4)GlcNAc(b1-3)Gal(b1-4)GlcNAc(b1-3)Gal(b1-4)GlcNAc(b1-3)Gal(b1-4)GlcNAc(b1-2)Man(a1-3)[Gal(b1-4)GlcNAc(b1-3)Gal(b1-4)GlcNAc(b1-3)Gal(b1-4)GlcNAc(b1-3)Gal(b1-4)GlcNAc(b1-2)Man(a1-6)]Man(b1-4)GlcNAc(b1-4)GlcNAc
Outline: as §1

[8] = molecular target: Gal(b1-4)GlcNAc(b1-3)Gal(b1-4)GlcNAc(b1-3)Gal(b1-4)GlcNAc(b1-3)Gal(b1-4)GlcNAc(b1-2)Man(a1-3)[Gal(b1-4)GlcNAc(b1-3)Gal(b1-4)GlcNAc(b1-3)Gal(b1-4)GlcNAc(b1-3)Gal(b1-4)GlcNAc(b1-2)Man(a1-6)]Man(b1-4)GlcNAc(b1-4)[Fuc(a1-6)]GlcNAc
Outline: as §1

[9] = molecular target: Gal(b1-4)GlcNAc(b1-3)Gal(b1-4)GlcNAc(b1-3)Gal(b1-4)GlcNAc(b1-3)Gal(b1-4)GlcNAc(b1-2)[Gal(b1-4)GlcNAc(b1-3)Gal(b1-4)GlcNAc(b1-3)Gal(b1-4)GlcNAc(b1-3)Gal(b1-4)GlcNAc(b1-6)]Man(a1-6)[Gal(b1-4)GlcNAc(b1-3)Gal(b1-4)GlcNAc(b1-3)Gal(b1-4)GlcNAc(b1-3)Gal(b1-4)GlcNAc(b1-2)Man(a1-3)]Man(b1-4)GlcNAc(b1-4)[Fuc(a1-6)]GlcNAc
Outline: as §1

[10] = molecular target: Gal(b1-4)GlcNAc(b1-3)Gal(b1-4)GlcNAc(b1-3)Gal(b1-4)GlcNAc(b1-3)Gal(b1-4)GlcNAc(b1-3)Gal(b1-4)GlcNAc(b1-2)Man(a1-3)[Gal(b1-4)GlcNAc(b1-3)Gal(b1-4)GlcNAc(b1-3)Gal(b1-4)GlcNAc(b1-3)Gal(b1-4)GlcNAc(b1-3)Gal(b1-4)GlcNAc(b1-2)Man(a1-6)]Man(b1-4)GlcNAc(b1-4)GlcNAc
Outline: as §1

[11] = molecular target: Gal(b1-4)GlcNAc(b1-3)Gal(b1-4)GlcNAc(b1-3)Gal(b1-4)GlcNAc(b1-3)Gal(b1-4)GlcNAc(b1-3)Gal(b1-4)GlcNAc(b1-2)Man(a1-3)[Gal(b1-4)GlcNAc(b1-3)Gal(b1-4)GlcNAc(b1-3)Gal(b1-4)GlcNAc(b1-3)Gal(b1-4)GlcNAc(b1-3)Gal(b1-4)GlcNAc(b1-2)Man(a1-6)]Man(b1-4)GlcNAc(b1-4)[Fuc(a1-6)]GlcNAc
Outline: as §1

[12] = molecular target: Gal(b1-4)GlcNAc(b1-3)Gal(b1-4)GlcNAc(b1-3)Gal(b1-4)GlcNAc(b1-3)Gal(b1-4)GlcNAc(b1-3)Gal(b1-4)GlcNAc(b1-2)[Gal(b1-4)GlcNAc(b1-3)Gal(b1-4)GlcNAc(b1-3)Gal(b1-4)GlcNAc(b1-3)Gal(b1-4)GlcNAc(b1-3)Gal(b1-4)GlcNAc(b1-6)]Man(a1-6)[Gal(b1-4)GlcNAc(b1-3)Gal(b1-4)GlcNAc(b1-3)Gal(b1-4)GlcNAc(b1-3)Gal(b1-4)GlcNAc(b1-3)Gal(b1-4)GlcNAc(b1-2)Man(a1-3)]Man(b1-4)GlcNAc(b1-4)[Fuc(a1-6)]GlcNAc
Outline: as §1

[13] = molecular target: Gal(b1-4)GlcNAc(b1-3)Gal(b1-4)GlcNAc(b1-3)Gal(b1-4)GlcNAc(b1-3)Gal(b1-4)GlcNAc(b1-3)Gal(b1-4)GlcNAc(b1-3)Gal(b1-4)GlcNAc(b1-2)Man(a1-3)[Gal(b1-4)GlcNAc(b1-3)Gal(b1-4)GlcNAc(b1-3)Gal(b1-4)GlcNAc(b1-3)Gal(b1-4)GlcNAc(b1-3)Gal(b1-4)GlcNAc(b1-3)Gal(b1-4)GlcNAc(b1-2)Man(a1-6)]Man(b1-4)GlcNAc(b1-4)GlcNAc
Outline: as §1

[14] = molecular target: Gal(b1-4)GlcNAc(b1-3)Gal(b1-4)GlcNAc(b1-3)GalNAc
Outline: as §1

[15] = molecular target: Gal(b1-4)GlcNAc(b1-3)Gal(b1-4)GlcNAc(b1-3)[Gal(b1-4)GlcNAc(b1-3)Gal(b1-4)GlcNAc(b1-6)]GalNAc
Outline: as §1

[16] = molecular target: Gal(b1-4)GlcNAc(b1-3)Gal(b1-4)GlcNAc(b1-6)[Gal(b1-3)]GalNAc
Outline: as §1

[17] = molecular target: Gal(b1-4)GlcNAc(b1-3)Gal(b1-4)[Fuc(a1-3)]GlcNAc(b1-3)Gal(b1-4)[Fuc(a1-3)]GlcNAc
Outline: as §1

[18] = molecular target: Gal(b1-4)GlcNAc(b1-3)GalNAc
Outline: as §1

[19] = molecular target: Gal(b1-4)GlcNAc(b1-3)[Fuc(a1-3)GlcNAc(b1-6)]Gal(b1-4)Glc
Outline: as §1

[20] = molecular target: Gal(b1-4)GlcNAc(b1-3)[Gal(b1-4)GlcNAc(b1-6)]Gal(b1-4)GlcNAc
Outline: as §1

[21] = molecular target: Gal(b1-4)GlcNAc(b1-3)[GlcNAc(b1-6)]Gal(b1-4)GlcNAc
Outline: as §1

[22] = molecular target: Gal(b1-4)GlcNAc(b1-6)Gal(b1-4)GlcNAc
Outline: as §1

[23] = molecular target: Gal(b1-4)GlcNAc(b1-6)GalNAc
Outline: as §1

[24] = molecular target: Gal(b1-4)GlcNAc(b1-6)[Gal(b1-3)]GalNAc
Outline: as §1

[25] = molecular target: Gal(b1-4)GlcNAc(b1-6)[Gal(b1-4)GlcNAc(b1-3)]GalNAc
Outline: as §1

Gal(b1-4)GlcNAc6P = molecular target: Gal(b1-4)GlcNAc6P
Outline: as §1

Gal(b1-6)Gal = molecular target: Gal(b1-6)Gal
Outline: as §1

Gal3S(b1-3)GalNAc = molecular target: Gal3S(b1-3)GalNAc
Outline: as §1

Gal3S(b1-3)GlcNAc = molecular target: Gal3S(b1-3)GlcNAc
Outline: as §1

[26] = molecular target: Gal3S(b1-3)[Fuc(a1-4)]GlcNAc
Outline: as §1

Gal3S(b1-4)Glc = molecular target: Gal3S(b1-4)Glc
Outline: as §1

Gal3S(b1-4)Glc6S = molecular target: Gal3S(b1-4)Glc6S
Outline: as §1

Gal3S(b1-4)GlcNAc = molecular target: Gal3S(b1-4)GlcNAc
Outline: as §1

[27] = molecular target: Gal3S(b1-4)[Fuc(a1-3)]Glc6S
Outline: as §1

[28] = molecular target: Gal3S(b1-4)[Fuc(a1-3)]GlcNAc
Outline: as §1

[29] = molecular target: Gal3S(b1-4)[Fuc(a1-3)]GlcNAc6S
Outline: as §1

Gal3S4S(b1-4)GlcNAc = molecular target: Gal3S4S(b1-4)GlcNAc
Outline: as §1

Gal3S6S(b1-4)GlcNAc = molecular target: Gal3S6S(b1-4)GlcNAc
Outline: as §1

Gal3S6S(b1-4)GlcNAc6S = molecular target: Gal3S6S(b1-4)GlcNAc6S
Outline: as §1

Gal4S(b1-4)GlcNAc = molecular target: Gal4S(b1-4)GlcNAc
Outline: as §1

Gal4S6S(b1-4)GlcNAc = molecular target: Gal4S6S(b1-4)GlcNAc
Outline: as §1

Gal6P(b1-4)GlcNAc = molecular target: Gal6P(b1-4)GlcNAc
Outline: as §1

Gal6S(b1-3)GlcNAc = molecular target: Gal6S(b1-3)GlcNAc
Outline: as §1

Gal6S(b1-3)GlcNAc6S = molecular target: Gal6S(b1-3)GlcNAc6S
Outline: as §1

Gal6S(b1-4)Glc = molecular target: Gal6S(b1-4)Glc
Outline: as §1

B1: SBD-G4S3-SBD (protein)
chain: MASIPSSASVQLDSYNYDGSTFSGKIYVKNIAYSKKVTVVYADGSDNWNNNGNIIAASFSGPISGSNYEYWTFSASVKGIKEFYIKYEVSGKTYYDNNNSANYQVSTGGGGSGGGGSGGGGSEFASIPSSASVQLDSYNYDGSTFSGKIYVKNIAYSKKVTVVYADGSDNWNNNGNIIAASFSGPISGSNYEYWTFSASVKGIKEFYIKYEVSGKTYYDNNNSANYQVST
glycan array binding signal (z-score) [1]: 0.685 | glycan array binding signal (z-score) [2]: 2.48 | glycan array binding signal (z-score) [3]: -0.123 | glycan array binding signal (z-score) [4]: 1.38 | glycan array binding signal (z-score) [5]: 3.24 | glycan array binding signal (z-score) [6]: 2.17 | glycan array binding signal (z-score) [7]: 1.39 | glycan array binding signal (z-score) [8]: 7.46 | glycan array binding signal (z-score) [9]: 1.54 | glycan array binding signal (z-score) [10]: -0.082 | glycan array binding signal (z-score) [11]: 2.81 | glycan array binding signal (z-score) [12]: 8.43 | glycan array binding signal (z-score) [13]: 2.72 | glycan array binding signal (z-score) [14]: -0.183 | glycan array binding signal (z-score) [15]: -0.31 | glycan array binding signal (z-score) [16]: 0.486 | glycan array binding signal (z-score) [17]: -0.376 | glycan array binding signal (z-score) [18]: -0.41 | glycan array binding signal (z-score) [19]: -0.39 | glycan array binding signal (z-score) [20]: 0.197 | glycan array binding signal (z-score) [21]: -0.208 | glycan array binding signal (z-score) [22]: -0.397 | glycan array binding signal (z-score) [23]: -0.154 | glycan array binding signal (z-score) [24]: 0.053 | glycan array binding signal (z-score) [25]: -0.077 | glycan array binding signal (z-score) (Gal(b1-4)GlcNAc6P): -0.348 | glycan array binding signal (z-score) (Gal(b1-6)Gal): -0.136 | glycan array binding signal (z-score) (Gal3S(b1-3)GalNAc): -0.369 | glycan array binding signal (z-score) (Gal3S(b1-3)GlcNAc): -0.406 | glycan array binding signal (z-score) [26]: -0.382 | glycan array binding signal (z-score) (Gal3S(b1-4)Glc): -0.146 | glycan array binding signal (z-score) (Gal3S(b1-4)Glc6S): -0.284 | glycan array binding signal (z-score) (Gal3S(b1-4)GlcNAc): -0.245 | glycan array binding signal (z-score) [27]: 1.17 | glycan array binding signal (z-score) [28]: -0.295 | glycan array binding signal (z-score) [29]: -0.211 | glycan array binding signal (z-score) (Gal3S4S(b1-4)GlcNAc): -0.325 | glycan array binding signal (z-score) (Gal3S6S(b1-4)GlcNAc): -0.338 | glycan array binding signal (z-score) (Gal3S6S(b1-4)GlcNAc6S): -0.352 | glycan array binding signal (z-score) (Gal4S(b1-4)GlcNAc): -0.382 | glycan array binding signal (z-score) (Gal4S6S(b1-4)GlcNAc): -0.35 | glycan array binding signal (z-score) (Gal6P(b1-4)GlcNAc): -0.342 | glycan array binding signal (z-score) (Gal6S(b1-3)GlcNAc): 0.167 | glycan array binding signal (z-score) (Gal6S(b1-3)GlcNAc6S): 0.168 | glycan array binding signal (z-score) (Gal6S(b1-4)Glc): -0.164
